In all, about 390,000 compounds went through this assay and about 4,700 (1.2%) were called active. Inconclusive results, whose numbers are uncertain, are shown with a selection of clear calls. Calls come from the whole dose curve; as a rule, active = well fitted inhibition curve with a large enough effect; inconclusive = small, poorly fitted or top-dose-only effect, or another doubt; inactive = no such curve, though single readings can be large or run the other way. Potencies beside an inconclusive call are fits to weak or partial responses and may not hold up.
molecular target: DNA polymerase eta (Homo sapiens) (UniProt Q9Y253); assay: qHTS for Inhibitors of Polymerase Eta; settings: recombinant Pol eta, fluorescent DNA replication assay; series mostly up to 114 µM
Method in brief: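 Fluorescent replication assay: 50 nM final substrate added after a 15 min room-temperature compound preincubation with 10 nM enzyme. Signal taken at 0 min and again at 10 min.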
Potency is the fitted concentration of half-maximal effect; tags give direction and shape of the fitted curve.

Sequence of UniProt Q9Y253 (Q9Y253 whole entry, looked up): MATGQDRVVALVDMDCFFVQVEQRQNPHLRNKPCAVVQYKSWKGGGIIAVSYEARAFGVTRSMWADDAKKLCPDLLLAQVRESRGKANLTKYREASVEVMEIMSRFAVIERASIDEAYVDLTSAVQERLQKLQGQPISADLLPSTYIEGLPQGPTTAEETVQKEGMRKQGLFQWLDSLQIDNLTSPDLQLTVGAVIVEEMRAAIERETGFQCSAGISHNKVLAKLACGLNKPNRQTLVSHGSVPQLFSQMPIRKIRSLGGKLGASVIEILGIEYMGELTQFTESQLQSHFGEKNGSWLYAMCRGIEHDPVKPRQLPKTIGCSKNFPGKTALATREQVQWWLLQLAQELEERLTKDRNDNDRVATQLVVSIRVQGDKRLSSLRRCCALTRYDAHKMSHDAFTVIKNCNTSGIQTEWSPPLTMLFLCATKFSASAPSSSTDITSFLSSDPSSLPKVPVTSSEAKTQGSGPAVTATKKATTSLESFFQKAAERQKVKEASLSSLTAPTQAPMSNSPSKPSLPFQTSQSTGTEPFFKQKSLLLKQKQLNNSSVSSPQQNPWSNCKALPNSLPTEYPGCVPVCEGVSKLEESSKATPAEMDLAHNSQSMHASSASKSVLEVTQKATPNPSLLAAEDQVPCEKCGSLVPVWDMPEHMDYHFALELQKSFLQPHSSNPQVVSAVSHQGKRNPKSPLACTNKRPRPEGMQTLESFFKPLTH

Row | Compound | Potency
1 | C/C(=N\Nc1ccc(S(N)(=O)=O)cc1[N+](=O)[O-])c1ccccc1O | inconclusive: 0.794 µM [inhibitor, full curve, poor fit]
2 | CCOc1ccc(/C=C(\C(=O)O)c2ccc(S(=O)(=O)N3CCCCC3)s2)cc1OC | inconclusive: 28.2 µM [inhibitor, single point]
3 | N#Cc1c(N)[nH]c2ccc(Sc3ccccc3)cc12 | inconclusive: 15.8 µM [inhibitor, partial curve, poor fit]
4 | N#Cc1c(NC(=O)c2ccncc2)sc2c1CCC2 | active: 31.6 µM
5 | COc1ccccc1CNC(=O)C(=O)NCC(c1cccs1)S(=O)(=O)c1ccc(F)cc1 (stereo unspecified) | inactive
6 | Cc1ccc(-c2cc(C(=O)N3CC(C)CC(C)C3)c3ccccc3n2)o1 (stereo unspecified) | active: 79.4 µM
7 | Cc1ccc(S(=O)(=O)N2CCOCC2)cc1C(=O)OCCOc1cccc(Cl)c1 | inconclusive: 35.5 µM [inhibitor, partial curve, poor fit]
8 | CC1CCC(NC(=O)Cn2c(=O)oc3cc(S(=O)(=O)N4CCCC4)ccc32)CC1 (stereo unspecified) | inconclusive: 20 µM [inhibitor, partial curve, poor fit]
9 | Cc1ccc(SCC(=O)Nc2cc(C)on2)cc1 | inconclusive: 22.4 µM [inhibitor, partial curve, poor fit]
10 | O=C1OCC(c2ccccc2)=C1c1ccc(S(=O)(=O)N2CCOCC2)s1 | inconclusive: 20 µM [inhibitor, full curve, poor fit]
11 | Cc1ccc(NCc2cccn2-c2nnc(N3CCCCCC3)s2)cc1 | inconclusive: 89.1 µM [inhibitor, partial curve, poor fit]
12 | Cc1nnc(NC(=O)c2nc(S(=O)(=O)Cc3ccccc3C)ncc2Cl)s1 | active: 56.2 µM
13 | CC(=O)Nc1nnc(SCc2cc(=O)c3cc(C)ccc3[nH]2)s1 | active: 50.1 µM
14 | Cc1ccc(NC(=O)CN2C(=O)S/C(=C\c3cc(C)n(-c4ccc(C(=O)O)cc4)c3C)C2=O)cc1 | active: 79.4 µM
15 | CCCCCOCC1CC(C/C(C)=N/Nc2nc(-c3ccccc3)cs2)C(=O)O1 (stereo unspecified) | inconclusive: 50.1 µM [inhibitor, partial curve]
16 | O=C(COc1ccc(/C=N/NC(=O)c2cc3ccccc3o2)cc1Cl)Nc1ccccc1 | inconclusive: 2.51 µM [inhibitor, full curve]
17 | Cc1nn2c(-c3cccc(NC(=O)CN4CCOCC4)c3)nnc2c2ccccc12 | inconclusive: 70.8 µM [inhibitor, partial curve]
18 | CCOC(=O)c1c(NC(=O)C2C3C=CC(C3)C2C(=O)O)sc2c1CCC(C)C2 (stereo unspecified) | inconclusive: 31.6 µM [inhibitor, single point]
19 | CC(=O)c1ccc(N2C(=O)CC(N3CCN(S(=O)(=O)c4cc(C)ccc4C)CC3)C2=O)cc1 (stereo unspecified) | inconclusive: 79.4 µM [inhibitor, partial curve]
20 | COc1cccc(OC)c1-c1nn2c(-c3cc(-c4ccccc4)n[nH]3)nnc2s1 | active: 6.31 µM
21 | O=C(Cn1c(=O)n(Cc2ccco2)c(=O)c2c3c(sc21)CCCCC3)Nc1ccccc1 | active: 50.1 µM

Row | Compound | Potency
22 | CCc1cc(-c2n[nH]c(CCC(=O)O)c2-c2nc3ccccc3n2C)c(O)cc1O | inconclusive: 89.1 µM [inhibitor, partial curve, poor fit]
23 | CCOc1ccc(/C=C2\SC(=S)N(C)C2=O)cc1OC | inactive
24 | O=C(Nc1ccc2nc(SCC(=O)N3CCCC3)sc2c1)c1ccccc1 | inactive
25 | CCOC(=O)c1sc(NC(=O)c2c(C)nn(Cc3ccccc3)c2C)cc1C | inconclusive: 25.1 µM [inhibitor, partial curve, poor fit]
26 | O=C(N/N=C/c1cn(Cc2ccccc2)c2ccccc12)c1cc(O)cc(O)c1 | active: 44.7 µM
27 | COc1ccccc1C(=O)Nc1c2c(nn1-c1ccc(Cl)cc1)CS(=O)(=O)C2 | inconclusive: 10 µM [inhibitor, partial curve, poor fit]
28 | CCCCC12CN3CC(C)(CN(C1)C3c1cc(Br)ccc1O)C2=O (stereo unspecified) | inconclusive: 89.1 µM [inhibitor, partial curve, poor fit]
29 | COc1cc(OC)c(NC(c2nnc(-c3ccccc3)o2)c2ccc(F)cc2Cl)cc1Cl (stereo unspecified) | inconclusive: 79.4 µM [inhibitor, partial curve, poor fit]
30 | C=CCn1c(SCC(=O)Nc2sc3c(c2C#N)CCC3)nnc1C1COc2ccccc2O1 (stereo unspecified) | inconclusive: 12.6 µM [inhibitor, partial curve]
31 | CCN(CC)C(=O)c1ccc(COc2ccccc2Br)o1 | inconclusive: 22.4 µM [inhibitor, partial curve, poor fit]
32 | CC(=O)C1CCC2C3CCC4CC(=O)CCC4(C)C3C=CC12C (stereo unspecified) | inconclusive: 35.5 µM [inhibitor, single point]
33 | Nc1c(SCCC(=O)O)ccc2c1C(=O)c1ccccc1C2=O | inactive
34 | Cn1c(N)c(C(=O)COC(=O)COc2cc(Cl)c(Cl)cc2Cl)c(=O)n(C)c1=O | inactive
35 | Cc1cccc(Cn2c(SCc3ccc(C(=O)N4CCCCCC4)cc3)nc3ccncc32)c1 | inactive
36 | CCCn1nc(NC(=O)C2CCCO2)c2cc3cccc(C)c3nc21 (stereo unspecified) | inactive
37 | O=c1cc(CN2CCN(S(=O)(=O)c3ccc4c(c3)OCCO4)CC2)c2ccc(O)cc2o1 | inconclusive: 89.1 µM [inhibitor, single point]
38 | COc1ccc2nc3c(cc2c1)c(NC(=O)c1cccs1)nn3CC(C)C | inconclusive: 15.8 µM [inhibitor, full curve, poor fit]
39 | CCN(CC(=O)Nc1ccc(NC(C)=O)cc1)C(=O)c1cccc(-n2cccc2)c1 | inconclusive: 17.8 µM [inhibitor, full curve, poor fit]
40 | COc1cc([N+](=O)[O-])cc(/C=N/NC(=O)C(C)Nc2cccc3ccccc23)c1O (stereo unspecified) | inconclusive: 20 µM [inhibitor, partial curve, poor fit]
41 | Cc1ccc(C(=O)NNC(=O)CSc2nnc3c(n2)[nH]c2ccc(F)cc23)cc1 | active: 79.4 µM

From PubChem BioAssay AID588591 (National Center for Advancing Translational Sciences (NCATS), 2011)
